Results reported in ChEMBL document CHEMBL4311995, “Discovery and development of extreme selective inhibitors of the ITD and D835Y mutant FLT3 kinases” (Eur J Med Chem, 2019).
Values after ≈ are worked out from the molar mass of the structure shown.

What was measured:
physchem [1] = conditions: buffer, pH 7.4
MV4-11 = test: cells; type: functional, cell-based; conditions: Homo sapiens, MV4-11, 72 h
K562 = test: cells; type: functional, cell-based; conditions: Homo sapiens, K562, 72 h
physchem [2] = conditions: buffer, pH 2
in vitro = conditions: PAMPA, pH 7.4
cells = type: ADME, cell-based; conditions: Homo sapiens, HS5, 72 h
U-937 = test: cells; type: functional, cell-based; conditions: Homo sapiens, U-937, 72 h
in vivo [3] = conditions: NMRI, mouse, po, 10 mg/kg
in vivo [4] = conditions: NMRI, mouse, po, 10 mg/kg; remark: listed apart in the source

SMILES	solubility kinetic at 24 h (physchem [1]) [µM]	IC50 (MV4-11) [nM]	IC50 (K562) [nM]	solubility kinetic at 24 h (physchem [2]) [µM]	Papp at 5 h (in vitro) [×10⁻⁶ cm/s]	IC50 (cells) [nM]	IC50 (U-937) [nM]	Tmax at 8 h (in vivo [3]) [h]	Cmax at 8 h (in vivo [4]) [ng/mL]
CN(C)CCNc1nc(/C=C/c2ccc(S(C)(=O)=O)cc2)nc2ccccc12	119 (≈ 47.2 µg/mL)	50	5540	120 (≈ 47.6 µg/mL)	1.42	8140	11300	–	–
CSc1ccc(/C=C/c2nc(NCCN(C)C)c3cc(Cl)ccc3n2)cc1	8 (≈ 3.19 µg/mL)	380	3000	94 (≈ 37.5 µg/mL)	3.49	–	4950	–	–
CC(C)c1ccc(/C=C/c2nc(NCCN(C)C)c3ccccc3n2)cc1	108 (≈ 38.9 µg/mL)	30	2490	–	5.85	2550	–	2	16.6
CN(C)CCCNc1nc(/C=C/c2ccc(F)cc2)nc2ccc(Cl)cc12	–	–	–	–	6.29	–	–	–	–
